Reference: paper PMC12136788
The other results are listed elsewhere or left out.

T1: UNK ZnF1-6 (called full-length) (human, UniProt Q9C0B0 30-357)
T1 sequence: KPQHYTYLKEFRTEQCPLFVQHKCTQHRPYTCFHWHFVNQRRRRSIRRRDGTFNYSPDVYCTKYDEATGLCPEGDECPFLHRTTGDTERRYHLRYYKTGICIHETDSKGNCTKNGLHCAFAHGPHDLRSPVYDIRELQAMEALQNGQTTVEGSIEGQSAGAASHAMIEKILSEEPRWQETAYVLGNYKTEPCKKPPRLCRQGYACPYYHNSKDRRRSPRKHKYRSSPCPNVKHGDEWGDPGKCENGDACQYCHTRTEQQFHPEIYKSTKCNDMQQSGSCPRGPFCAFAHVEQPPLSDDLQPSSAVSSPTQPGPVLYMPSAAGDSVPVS

B1: chr11:95129132:95129233:+|CDS|ENSG00000149218|msi1|total|mutant (ssRNA)
RNA: GGGAGUUCUACAGUCCGACGAUCAAUCCUGAAGAACAUUGUCUAUUUCCUGUGGUGUGUUACCAAGCAGGUGAUUAAUGGCACCGAAAGUUGCCUUUACCGCCUGGGCUCAGCCACCAUCUCAUACUUCAUGGCCAUUGGGGACAACAGAGGAUUGAGCAUCA
B2: chrX:40074726:40074839:-|CDS|ENSG00000183337|unk|total|mutant (ssRNA)
RNA: GGGAGUUCUACAGUCCGACGAUCGCGCUGGGCUUGGACAGGCCUGCCAGCGACAAACAGAGCCCUCUCAACAUCAAUGGUGCCCGUUAUCUGCGGCUGCCCUGGGUCAAUCCUUACAUGGAGGGUGCCACGCCAGCCAUCUACCAACAGAGGAUUGAGCAUCA
B3: chrX:48915045:48915146:-|CDS|ENSG00000102096|unk|total|mutant (ssRNA)
RNA: GGGAGUUCUACAGUCCGACGAUCCCAGCACUGCCAUUCCCGUGGAGUUGUCCAUCGUGACAUCAAGGAUGAGAACAUCCUGACCGACCUACGCCGUGGCUGUGCCAAACUCAUUGAUUUUGGUUCUGGUGCCCUGCUUCAUGACAACAGAGGAUUGAGCAUCA
B4: chr2:218264180:218264222:-|3pUTR|ENSG00000127837|msi1_unk|total|mutant (ssRNA)
RNA: GGGAGUUCUACAGUCCGACGAUCUUGAGGUUCCCGUUCUUUCCCUUCCCAAGUCUCUGGGGGUGGAAAGGAGGAAGAGAUACCCGUUAAAGAUUUUAAAAAUGUAAAUAAAAUAUACUUCCCAGAGACAGAGUCUGUGUGGAUCAACAGAGGAUUGAGCAUCA
B5: chr1:156742365:156742464:-|3pUTR|ENSG00000143321|msi1_unk|FALSE|overlapping (ssRNA)
RNA: GGGAGUUCUACAGUCCGACGAUCAUUUCUGAGGUGCACUGGGAGGCUCCCCUUCUAUUUGGGGCUUGAUGACUUUCUUUUUGUAGCUGGGGCUUUGAUGUUCCUUCCAGUGUCAUUUCUCAUCCACAUACCCUGACCUGGCCCCAACAGAGGAUUGAGCAUCA
B6: chr3:121436121:121436275:-|CDS|ENSG00000051341|control|control|control (ssRNA)
RNA: GGGAGUUCUACAGUCCGACGAUCAGUCCAAGGAUCAGCAGCUGAUAUUGUCAAAAUAGCCACAGUUAACAUUCAGAAGCAAUUAGAGACCUUCCACUCAACCUUCAAAUCCCAUGGUCAUCGAGAGGGUAUGCUCCAAAGUGACAACAGAGGAUUGAGCAUCA
B7: chr17:2300308:2300409:-|CDS|ENSG00000070366|unk|FALSE|unique (ssRNA)
RNA: GGGAGUUCUACAGUCCGACGAUCGACCCAGAAAAUAAUCGGGGACAAGAAUCCUUUCCUAGGACUGCUGGACAAGAGGAUCGUAGUCUAAAAAUUAUCAAAAGAACAAAGAAACCCGACCUGCAGAUCUAUCAGCCUGGACGACAACAGAGGAUUGAGCAUCA
B8: chr12:89590234:89590335:-|3pUTR|ENSG00000070961|msi1|FALSE|bound_elsewhere (ssRNA)
RNA: GGGAGUUCUACAGUCCGACGAUCUUUGCCUACAAUUUACCUUGUUAAAUAUUGUAGAUAAAUUGCUAAUACUAAUAGCCAAAUAGAUAACACUAAUGCUUUGUUUAAAAAAACGAAAAAAACAAAACAAAACAAAAAAACAUGCAACAGAGGAUUGAGCAUCA
B9: chr8:80499649:80499757:+|CDS|ENSG00000205189|unk|total|mutant (ssRNA)
RNA: GGGAGUUCUACAGUCCGACGAUCUAAGACUUUAUAUUGCUUUUCAAACAAAGAAAGCCCUAACCAAAACAAUACUACCCACUCCGAUAUUGCUGCAGUUCAAGGUUUUUCAGUCAUCUUGGACUUCUUGUAUUCUGGUAACCUCAACAGAGGAUUGAGCAUCA
B10: chr3:17009782:17009883:+|CDS|ENSG00000154822|unk|total|mutant (ssRNA)
RNA: GGGAGUUCUACAGUCCGACGAUCAAUUCAAUGGUUGAGGGUUCAGAACUCAAAAAGGUUCGCUCCAACUCCCGAAUUUAUCACCGGUACUUUUUACUGGAUGCUGACAUGCAGAGCCUAAGGUGGGAGCCAUCUAAGAAGGAUCAACAGAGGAUUGAGCAUCA
B11: chr15:52122579:52122653:-|3pUTR|ENSG00000069966|msi1_unk|total|mutant (ssRNA)
RNA: GGGAGUUCUACAGUCCGACGAUCUCUUCACAUGUAAACCGAUAUUACUUCCCGAGGAGCUCCGAGUUUAUUGCAGUGCCGCUCCGGGGAGCAACCCAUGGCUCACAGGUCACUAAGCGUCUCCAAUAUGACUAUUAAAACUGUCAACAGAGGAUUGAGCAUCA
B12: chr7:105566322:105567453:-|three_prime_utr|ENSG00000185055|control|control|control (ssRNA)
RNA: GGGAGUUCUACAGUCCGACGAUCAGUUUCAUUAAUUCAGAAUUUCAUCAUAUAACUUGAAAUCCAAUUGGCUUCCUCUUUCUUAGAAACAAAAACCAAAGAAACCUUUUUCUGAAAGACAUUAUUUUCCAGUAUUAGGCCAAUCAACAGAGGAUUGAGCAUCA
B13: chr10:11763304:11763405:+|CDS|ENSG00000134463|unk|total|mutant (ssRNA)
RNA: GGGAGUUCUACAGUCCGACGAUCGGGCUGCUCCGCAAGGUGGUGCCAGAGGCGGAGCUGCAGGAGGAGACCAUGCGGAUCGCCCGGAAGAUCGCAUCGCUGAGCCGUCCGGUGGUGUCCCUGGGCAAAGCCACCUUCUACAAGCAACAGAGGAUUGAGCAUCA
B14: chr17:82078764:82078865:-|3pUTR|ENSG00000169710|msi1_unk|FALSE|overlapping (ssRNA)
RNA: GGGAGUUCUACAGUCCGACGAUCCCGUGGGGUCUGCGCUUGGUCUUUCUGUGCUUGGAUUUGCAUAUUUAUUGCAUUGCUGGUAGAGACCCCCAGGCCUGUCCACCCUGCCAAGACUCCUCAGGCAGCGUGUGGGUCCCGCACCAACAGAGGAUUGAGCAUCA
B15: chr2:39051162:39051270:-|CDS|ENSG00000115904|unk|total|mutant (ssRNA)
RNA: GGGAGUUCUACAGUCCGACGAUCAAAUAUAUUCCGUCGCACCGCCGAUAUACAUGAACUCCGUGUAAAGUUACUGGGCCAUACCGAAGAUACAGCCGAAAUGACAGAUGAAGGCAGUCCCCAUCCACCCGCCGGAAGCUGCUUCAACAGAGGAUUGAGCAUCA
B16: chr4:70820284:70820384:-|3pUTR|ENSG00000132463|msi1_unk|total|mutant (ssRNA)
RNA: GGGAGUUCUACAGUCCGACGAUCUGAACUGGUAUGGUUUGGCAGAACCGUUUUAAAUUUUGCUGUAUUUGAUUACUCCGAGACCGGAAUUUUUAAAAAUCAAAACAAAAAAUACCACAGCUCCGUGUAAAUGACAAUUUGGCGCAACAGAGGAUUGAGCAUCA
B17: chr6:122432834:122432935:+|3pUTR|ENSG00000025156|msi1|total|mutant (ssRNA)
RNA: GGGAGUUCUACAGUCCGACGAUCAUAUACCGAAAGAUCGGGGGUGGGAUGGGAUGGAGUGAGCCCCAUCCAGUCCGUUGGACCCGUUUUAAAUAAAGGUUUUCCGGUUUGUGUUUUUUUGAACCAUACUGUUCCGUAAAAUAACAACAGAGGAUUGAGCAUCA
B18: chr7:7573188:7573293:+|CDS|ENSG00000164654|unk|FALSE|bound_elsewhere (ssRNA)
RNA: GGGAGUUCUACAGUCCGACGAUCCCAUAUUUCCACGAUCGUGUUGCUUCCUUCUAUGAAGGUCAGGUUGCAAUAUGGGAUCUUAGAAAAUUUGAGAAGCCAGUUUUGACAUUGACUGAGCAACCAAAACCCUUAACAAAAGUACAACAGAGGAUUGAGCAUCA
B19: chr2:216675642:216675774:-|3pUTR|ENSG00000115461|msi1|FALSE|unique (ssRNA)
RNA: GGGAGUUCUACAGUCCGACGAUCUUUUUCUUUGUUUUUUUCUUUCUUCCUUUCUUUCAAAGGUUUGCAUUAACUUUUCAAAGUAGUUCCUAUAGGGGCAUUGAGGAGCUUCCUCAUUCUGGGAAAACUGAGAAAACCCAUAUUCAACAGAGGAUUGAGCAUCA
B20: chr17:48133441:48133816:-|three_prime_utr|ENSG00000141293|control|control|control (ssRNA)
RNA: GGGAGUUCUACAGUCCGACGAUCAGCUACCAGUAAGACAAGUGGGAAGAGGCACGUUCAUCAAACCUGUUACUAAACCAGCCUAGUCAUAGCUCAUCCCCAUCUCUAAAUGUGUCCACACAACCACAUCUGCCUUUUCCACAACAACAGAGGAUUGAGCAUCA
B21: chr12:39370042:39370220:-|CDS|ENSG00000139116|unk|total|mutant (ssRNA)
RNA: GGGAGUUCUACAGUCCGACGAUCUACUUUUGACUAUGUAUUUGACAUUGACUCCCAGCAAGAGCAGAUCUACAUUCAAUGUACCGAAAAACUAAUUGAAGGUUGCUUUGAAGGAUACAAUGCUACAGUUUUUGCUUAUGGACACAACAGAGGAUUGAGCAUCA
B22: chr16:14644374:14644495:+|CDS|ENSG00000103429|unk|FALSE|unique (ssRNA)
RNA: GGGAGUUCUACAGUCCGACGAUCAACACAAUGGACCUUGAGAGAGAUGAACCUCUCAAAAGCACCGGCCCUCAGAUUUCUGUUAGUGAAUUUUCUUGCCACUGCUGCUACGACAUCCUGGUUAACCCCACCACCUUGAACUGUCAACAGAGGAUUGAGCAUCA

Biological target: T1, UNK ZnF1-6 (called full-length)
Test: nsRBNS (natural sequence RNA bind-n-seq); RBNS binding buffer (assumed for nsRBNS): 25 mM Tris pH 7.5, 150 mM KCl, 3 mM MgCl2, 0.01% Triton X-100, 500 ug/ml BSA, 20 U/ml SUPERase-In, 4 C; UNK is unkempt and MSI1 is Musashi-1; names of the RNAs are library labels; protein concentration not given here; high values mean tight binding

Binder	binding signal
B1	0.449 enrichment R
B2	0.869 enrichment R
B3	0.637 enrichment R
B4	0.812 enrichment R
B5	0.801 enrichment R
B6	0.755 enrichment R
B7	1.13 enrichment R
B8	1.06 enrichment R
B9	0.496 enrichment R
B10	0.597 enrichment R
B11	0.499 enrichment R
B12	0.874 enrichment R
B13	0.722 enrichment R
B14	0.749 enrichment R
B15	0.615 enrichment R
B16	0.414 enrichment R
B17	0.521 enrichment R
B18	0.375 enrichment R
B19	0.426 enrichment R
B20	0.873 enrichment R
B21	0.492 enrichment R
B22	0.765 enrichment R
